Measurements reported in publication PMC4336329 (PLoS ONE, 2015).
Out of some 310,000 compounds screened, about 2,200 (0.71%) showed an effect of 50% or more. The effect is printed as a negative number. The list shows a part of the results.

Target: human ether-à-go-go-related gene (hERG) potassium channel (human, UniProt Q12809)
Experiment: primary screen, population patch clamp on CHO cells stably expressing hERG

Chain of human ether-à-go-go-related gene (hERG) potassium channel (Q12809 whole entry, looked up): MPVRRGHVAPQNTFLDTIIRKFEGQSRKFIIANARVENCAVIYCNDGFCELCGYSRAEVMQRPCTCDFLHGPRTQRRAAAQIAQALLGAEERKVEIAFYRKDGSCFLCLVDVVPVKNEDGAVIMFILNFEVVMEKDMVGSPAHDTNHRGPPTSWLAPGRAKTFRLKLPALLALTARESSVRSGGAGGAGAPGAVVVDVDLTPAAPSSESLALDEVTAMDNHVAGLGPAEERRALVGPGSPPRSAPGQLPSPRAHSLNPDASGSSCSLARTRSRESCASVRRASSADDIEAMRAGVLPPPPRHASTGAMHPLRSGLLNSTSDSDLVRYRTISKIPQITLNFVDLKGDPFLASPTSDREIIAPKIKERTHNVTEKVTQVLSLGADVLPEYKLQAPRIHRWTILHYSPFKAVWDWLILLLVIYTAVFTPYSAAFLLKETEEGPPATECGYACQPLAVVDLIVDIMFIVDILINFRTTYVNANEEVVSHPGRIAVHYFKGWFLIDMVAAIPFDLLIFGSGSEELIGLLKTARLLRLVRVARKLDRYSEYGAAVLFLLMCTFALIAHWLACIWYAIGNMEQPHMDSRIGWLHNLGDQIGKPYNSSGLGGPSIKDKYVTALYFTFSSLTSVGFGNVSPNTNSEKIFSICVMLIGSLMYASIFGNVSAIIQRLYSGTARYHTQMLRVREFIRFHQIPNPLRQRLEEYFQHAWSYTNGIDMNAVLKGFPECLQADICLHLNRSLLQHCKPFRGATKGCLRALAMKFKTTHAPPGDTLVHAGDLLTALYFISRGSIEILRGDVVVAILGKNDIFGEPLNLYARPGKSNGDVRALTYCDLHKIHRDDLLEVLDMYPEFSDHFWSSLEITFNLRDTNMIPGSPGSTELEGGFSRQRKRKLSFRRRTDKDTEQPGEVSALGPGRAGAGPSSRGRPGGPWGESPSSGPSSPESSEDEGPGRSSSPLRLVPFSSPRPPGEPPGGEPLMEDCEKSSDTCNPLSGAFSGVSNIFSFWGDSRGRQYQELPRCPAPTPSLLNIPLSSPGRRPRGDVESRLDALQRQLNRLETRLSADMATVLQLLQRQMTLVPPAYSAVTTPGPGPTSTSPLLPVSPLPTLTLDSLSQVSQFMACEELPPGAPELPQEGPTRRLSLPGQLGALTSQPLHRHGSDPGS

| Structure (SMILES) | hERG current change (%, negative = inhibition) at 1uM |
| --- | --- |
| CCN1CCCC1CNC(=O)C1CCN(Cc2nc(-c3cccc(Br)c3)oc2C)CC1 (stereo not shown) | -0.341% |
| Cc1ccc(S(=O)(=O)N2CCN(C(=O)N3CCOCC3)C2C)cc1 (stereo not shown) | 2.63% |
| COc1ccccc1-c1nnc(SCC(=O)Nc2cc(C)on2)o1 | 11% |
| O=C(Cn1ccc([N+](=O)[O-])n1)c1ccccc1 | 9.25% |
| O=C(OCn1nnc2ccccc2c1=O)C1CCN(S(=O)(=O)c2cccs2)CC1 | -0.69% |
| Brc1cc2c(cc1Cn1c(-c3cncs3)nc3ccccc31)OCO2 | 15.2% |
| O=c1c2sccc2nc(SCc2cc(=O)n3cc(Br)ccc3n2)n1Cc1ccccn1 | 5.7% |
| O=C(Cn1c(=O)oc2ccccc21)N1CCN(c2ccccc2)CC1 | 9.54% |
| Clc1ccc(OCCn2ccnc2)c(Cl)c1 | 1.88% |
| Br.O=C(CSc1nc2ccccc2c(=O)n1-c1ccccc1)c1cccc([N+](=O)[O-])c1 | 12.7% |
| CC(=O)NCCC(=O)Nc1sc2c(c1-c1nc3ccccc3[nH]1)CCCC2 | 7.25% |
| CNC(=O)C(C)Sc1ccc(S(=O)(=O)N2CCOCC2)cn1 (stereo not shown) | 2.91% |
| CCc1nnc(NC(=O)CN2CCN(CC)CC2)s1 | 11.9% |
| O=C(NCCSCc1ccc(Cl)cc1Cl)c1ccc(CN2CCOCC2)cc1 | -7.94% |
| CCOC(=O)c1nn(-c2ccc(F)cc2)c(=O)cc1OCC(=O)N1CCN(c2ccccc2)CC1 | 15.8% |
| O=C(c1ccccc1)c1ccc(C(=O)N2CCOCC2)cc1 | 6.62% |
| CC(C)[C@H](NC(=O)c1ccco1)C(=O)N(C)Cc1ccc(C(F)(F)F)cc1 | 10.4% |
| Cc1ccc2cc(CN(CC(C)C)C(=O)C3CCCO3)c(=O)[nH]c2c1 (stereo not shown) | -1.75% |
| CCC(CC)NC(=O)c1n[nH]c(=O)c2ccccc12 | 16.9% |
| O=C(O)c1ccc(NC(=O)C2(c3ccccc3)CCCC2)cc1 | 1.88% |
| COc1ccc(-n2c(SCC(=O)NCC3CCCO3)nc3c(c2=O)SCC3)cc1 (stereo not shown) | 13.3% |
| COc1ccc2nc(SCC(=O)N3CCNC3=O)[nH]c2c1 | 2.98% |

| Structure (SMILES) | hERG current change (%, negative = inhibition) at 1uM |
| --- | --- |
| O=C(NC1CCN(Cc2ccccc2)CC1)c1ccccc1F | -2.19% |
| COC(C/C=C\C(=O)[C@H](C)OCc1ccccc1)OC | 13.5% |
| CC(=NCCc1ccccc1)C1=C(O)C(c2ccccc2)OC1=O (stereo not shown) | 6.39% |
| CC(=O)c1c(C)cc(C)c(CSc2nnc(-c3ccco3)o2)c1C | -0.178% |
| COc1cc(OC)c(NS(=O)(=O)c2ccc3c(c2)NC(=O)CO3)cc1Cl | 2.84% |
| Cc1ccnc(NC2(C(F)(F)F)N=C3SCCN3C2=O)c1 (stereo not shown) | 10.7% |
| S=C(NCCc1ccccc1)NCc1cccs1 | 3.73% |
| COCCN(C(=O)COC(=O)/C=C/c1ccccc1Cl)c1c(N)n(Cc2ccccc2)c(=O)[nH]c1=O | 24.5% |
| COc1ccc(S(=O)(=O)N2CCOC2CNC(=O)C(=O)NCCN2CCOCC2)cc1OC (stereo not shown) | 11.6% |
| CCCC(=O)NC(=S)Nc1cccc(NC(=O)c2ccc(Cl)cc2Cl)c1 | 10.8% |
| Cc1ccc(O)c(NC(=O)c2ccco2)c1 | 5.55% |
| O=C(c1ccc2snnc2c1)N1CCSCC1 | 10.8% |
| CCOC1(/N=C(\C)NS(=O)(=O)c2ccc(Cl)cc2)C(C)=CC(=O)C=C1C | 15.2% |
| Cc1csc2sc(-c3ccnc(SCC(=O)NCc4ccccc4)n3)c(C)c12 | 14.2% |
| Cc1cc(SCC(=O)N2CCN(C(=O)c3ccco3)CC2)c(C)cc1Br | -5.27% |
| COc1cc(C2CC(c3ccccc3)=NN2c2ccccc2)ccc1OCC(=O)O (stereo not shown) | 15% |
| CCc1ccc(NS(=O)(=O)c2ccc3[nH]cc(C(=O)NCC4CCCO4)c(=O)c3c2)cc1 (stereo not shown) | 9.38% |
| O=C(Nc1ccc(S(=O)(=O)N2CCCc3ccccc32)cc1)C1CCCO1 (stereo not shown) | -21% |
| COc1ccc(OC)c2nc(-c3ccncc3)ccc12 | 11.8% |
| CCN(CC)S(=O)(=O)c1cc(NC(=O)C(C)OC(=O)c2[nH]c(C)c(C(C)=O)c2C)ccc1C (stereo not shown) | 15.8% |
| Cc1cccc(C)c1NC(=O)CNc1ncnc2sc(C)c(C)c12 | 18.6% |
